# Data taken from the supplement of paper PMC3334620.
# The full ranking holds about 33,000 sequences; the median of “E-score (-0.5 to 0.5)” is about -0.054, and the highest 2% start at about 0.35. The list shows a part of the results.
# Target: T1, Stb5 (UniProt P38699)
# T1 sequence: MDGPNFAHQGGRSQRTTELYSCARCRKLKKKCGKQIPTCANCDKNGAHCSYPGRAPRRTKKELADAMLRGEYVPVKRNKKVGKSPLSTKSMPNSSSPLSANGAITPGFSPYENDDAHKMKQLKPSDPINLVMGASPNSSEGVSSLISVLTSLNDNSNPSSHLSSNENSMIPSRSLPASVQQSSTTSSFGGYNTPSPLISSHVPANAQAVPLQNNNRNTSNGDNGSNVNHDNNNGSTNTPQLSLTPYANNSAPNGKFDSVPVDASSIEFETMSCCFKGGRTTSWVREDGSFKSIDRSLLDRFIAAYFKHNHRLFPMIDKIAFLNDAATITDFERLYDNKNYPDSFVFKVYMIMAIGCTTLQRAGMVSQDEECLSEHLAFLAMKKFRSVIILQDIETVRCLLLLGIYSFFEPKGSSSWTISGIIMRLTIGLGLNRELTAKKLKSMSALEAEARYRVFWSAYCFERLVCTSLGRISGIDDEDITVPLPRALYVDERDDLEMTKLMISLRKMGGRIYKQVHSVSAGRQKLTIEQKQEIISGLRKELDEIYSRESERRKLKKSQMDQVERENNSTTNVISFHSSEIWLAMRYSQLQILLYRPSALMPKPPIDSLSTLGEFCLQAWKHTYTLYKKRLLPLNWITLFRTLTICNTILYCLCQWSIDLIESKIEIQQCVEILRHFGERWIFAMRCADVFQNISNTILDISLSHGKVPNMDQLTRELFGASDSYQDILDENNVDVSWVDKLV
# Test: PBM E-score (8-mer binding enrichment) (E-score (-0.5 to 0.5)); higher = stronger / more preferred TF binding; most listed sequences are background and not binding sites
# Conditions: protein concentration: 200 nM; construct: GST-full length
# Summary of the method: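 Using PURExpress in vitro transcription/translation, GST-tagged yeast transcription factors were made in full-length or DNA-binding-domain form. These were applied at about 100-200 nM to double-stranded universal all-10-mer Agilent arrays, and bound protein was detected with fluorescent anti-GST. Scans were normalised with masliner before the Universal PBM Analysis Suite assigned E-scores to ungapped eight-base words pooled with their reverse complements.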
row,Sequence,PBM E-score
1,CATGCATA,0.0159
2,TCGGTGCA,0.271
3,TAGTGGAA,0.0242
4,CTCACATA,-0.098
5,CGGCGATC,0.122
6,CCGGCAGA,0.216
7,GCGCCGGA,0.298
8,AGCTGTGA,-0.266
9,CTTTAGTA,-0.0773
10,AGAATGAT,-0.254
11,AAGTACTC,-0.104
12,CAATAGTA,-0.0757
13,GTTGTCCA,-0.28
14,GTTCGTAA,-0.036
15,AAATCCAG,-0.312
16,CACTGCCA,-0.2
17,AAGGTGTA,-0.0581
18,ACAACTCC,0.0809
19,GCGACTAC,-0.0381
20,ACTGGCTG,-0.0745
21,CCATGCAA,-0.00387
22,AAAGCATT,-0.193

row,Sequence,PBM E-score
1,CGATCTAA,-0.087
2,GGGGGACC,-0.086
3,AACCCAGT,-0.043
4,AGAAGTTC,-0.138
5,CTGCTTCC,0.0143
6,CTATACGC,-0.0454
7,CAACCTAG,-0.224
8,AGCCTGGG,-0.0438
9,AATGCTCC,0.0571
10,CAGTCCCA,-0.372
11,GTCGAAAA,-0.0406
12,ATAATGGC,0.269
13,ATCCGGGG,0.275
14,TGGCGACA,-0.191
15,AATTAACA,-0.136
16,TAAAACTA,-0.0104
17,TCAGTGCA,-0.163
18,AAAGGTTC,-0.132
19,CACAACAG,-0.148
20,CTTGGTCC,0.0225
21,AGAATACG,0.0115
22,AAGGGAAG,-0.196

row,Sequence,PBM E-score
1,CAGCAGGA,-0.194
2,AACCGGGA,0.125
3,GAACACAC,-0.0424
4,CAATGGTC,0.105
5,CAAATCCG,0.102
6,ATCAACTG,-0.0648
7,ACAGCCTA,-0.279
8,GCCGTTAA,0.237
9,AAGAGGTC,-0.15
10,CTTTGCAC,-0.0129
11,ACATAGCG,0.0971
12,GCATCCTA,-0.0379
13,CAGGAGAC,-0.138
14,CCCCTATC,-0.146
15,GAAGAGCC,0.129
16,AGTCCGTA,0.284
17,ATATAGTG,0.0801
18,ACTCGCAC,-0.123
19,ACCGCACG,0.153
20,AATGTTCC,0.107
21,CCCGTCGG,0.435
22,CAATTGCG,-0.0919

row,Sequence,PBM E-score
1,GTTCACTA,-0.0296
2,GCCCCAAC,-0.0501
3,AGGTCATC,0.0432
4,GCGTTCAA,-0.139
5,TCAAGTAA,-0.0626
6,CTTAAATC,0.173
7,ATAAGCCG,0.0226
8,CTCGTTCA,-0.0257
9,CCTAAAAA,0.0102
10,TGGCAAAA,-0.0799
11,CCAGTTAC,-0.187
12,ATCCCAGG,-0.00529
13,ACGAAGTG,-0.147
14,ATTTGTGG,0.00692
15,ACAATTAT,-0.0661
16,ACCAGACT,-0.226
17,AAGATTAT,0.101
18,AATTTAGA,-0.101
19,GATTATTA,0.0913
20,TAATACAA,-0.0433
21,CCGGGTCC,0.183
22,GTTGCAGA,-0.115

row,Sequence,PBM E-score
1,TTCTACAA,-0.107
2,TCCCTTAA,-0.254
3,TAGGTATA,-0.039
4,GAATGGAC,-0.112
5,CCGTATTA,0.242
6,AAATATGC,-0.0724
7,AAATCCCA,-0.156
8,CCAACCGC,0.0525
9,TCCGCCCA,0.308
10,GGTGGCTA,0.0123
11,GGATCTGA,-0.0127
12,ATTCGTCA,-0.181
13,ACCCTGAC,-0.0664
14,AGTATCTA,-0.212
15,AGTGTGCG,-0.159
16,CCTTAGGC,-0.0302
17,ACGATTCC,0.0287
18,ATGGTGTC,-0.0208
19,ATGGTATC,-0.0203
20,GTTATTGA,-0.106
21,CAATGGGA,0.0877
22,CATAGGCA,-0.17
